The IC50 is the concentration needed to halve the response being measured.

In the assay the test system is 292921-168-R-J2-PDC complex spheroid viability. The experiment in a line: Anticancer human tumor 292921-168-R-J2-PDC patient-derived pancreatic carcinoma cell line growth inhibition. Particulars: combination with iadademstat, compound alone. An excerpt:
Multicellular complex tumor spheroid response to LSD1 Inhibitor Iadademstat in combination with a variety of drugs and investigational agents in selected tumor cell lines
The current study was undertaken to assess response to LSD1 inhibitors in combination with standard-of-care drugs and investigational agents in solid tumor complex spheroid models as well as in the K-562 leukemia. Complex spheroids include a stromal component modeled by human endothelial cells (HUVEC) and fibroblasts modeled by human mesenchymal stem cells (MSCs). The concentration ranges selected for each drug and investigational agent were based upon clinically achievable concentrations if the clinical Cmax of the agent was known.
Compounds. The drugs and investigational agents used in this study are listed on Table 1. All of the agents used, including staurosporine (NSC755774) and gemcitabine (NSC613327), were obtained from the Developmental Therapeutics Program, NCI. FDA-approved anticancer drugs are available from the NCI at http://dtp.nci.nih.gov/branches/dscb/oncology_drugset_explanation.html. Drugs and investigational agents were >95% pure by proton nuclear magnetic resonance (NMR) and liquid chromatography/mass spectrometry (LC/MS). […] If the clinical Cmax for an agent had not been determined, the highest concentration tested was 10 microM. […]

The source holds more than one record for some entries. This list holds those alone. An entry can have further records. Results that share an entry are repeated measurements across runs, samples, wells, individuals or studies.
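Further: seven day compound exposure before luminescent viability read.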

On to `NC1CC1c1ccc(-c2cccc(O)c2)cc1` (configuration not stated), for which, where the note is “run of 02/21/2022”, the IC50 is given as > 10 µM, 6.96 µM, 8.98 µM, 7.96 µM, 9.66 µM. With `NC1CCC(NC2CC2c2ccccc2)CC1` (configuration not stated), the IC50 (run of 02/15/2022) is listed as 8.62 µM, > 10 µM, 9.29 µM, 3.47 µM, 9.04 µM, 5 µM.

These data come from PubChem BioAssay AID1918934 (Molecular Pharmacology Branch, DTP, NCI, 2023).
